# From PubChem BioAssay AID1468 (National Center for Advancing Translational Sciences (NCATS), 2008)
# “And” between values parts separate entries of the source, which are not always exact repeats. Identical values can stand only once. Out of some 280,000 compounds screened, about 1,100 (0.39%) were called active. The inconclusive results got no clear call from the source; some entries with a clear call stand among them for comparison. Calls follow the shape of the dose curve; as a rule, active = well fitted inhibition curve with a large enough effect; inconclusive = small, poorly fitted or top-dose-only effect, or effect the other way; inactive = flat fitted curve, though single readings scatter. Where the call is inconclusive, the potency comes from a doubtful curve fit.
# Target: Microtubule-associated protein tau (Homo sapiens) (UniProt P10636)
# Experiment: qHTS for Inhibitors of Tau Fibril Formation, Fluorescence Polarization; also: nearly all actives have a fitted effect of over 55% in size
# Conditions: K18 P301L tau heparin fibrillization, Alexa594 FP, 6 h; series mostly up to 57.7 µM; activity, negative = inhibition: at the top concentration
# Outline: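 Heparin (20 uM) drove fibril formation of recombinant tau K18 P301L, 15 uM unlabeled with 0.24 uM Alexa 594 label, for 6 hr at 37 C in 100 mM sodium acetate pH 7. Fluorescence polarization (555/632 nm) read 1 hr after 30 uM ThT.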
# % is scaled to controls: 0 for no effect and ±100 for the full control effect; potency is read from the fitted curve at half-maximal effect; tags tell the direction and shape of the fitted curve.
# Sequence of UniProt P10636 (P10636 whole entry, looked up): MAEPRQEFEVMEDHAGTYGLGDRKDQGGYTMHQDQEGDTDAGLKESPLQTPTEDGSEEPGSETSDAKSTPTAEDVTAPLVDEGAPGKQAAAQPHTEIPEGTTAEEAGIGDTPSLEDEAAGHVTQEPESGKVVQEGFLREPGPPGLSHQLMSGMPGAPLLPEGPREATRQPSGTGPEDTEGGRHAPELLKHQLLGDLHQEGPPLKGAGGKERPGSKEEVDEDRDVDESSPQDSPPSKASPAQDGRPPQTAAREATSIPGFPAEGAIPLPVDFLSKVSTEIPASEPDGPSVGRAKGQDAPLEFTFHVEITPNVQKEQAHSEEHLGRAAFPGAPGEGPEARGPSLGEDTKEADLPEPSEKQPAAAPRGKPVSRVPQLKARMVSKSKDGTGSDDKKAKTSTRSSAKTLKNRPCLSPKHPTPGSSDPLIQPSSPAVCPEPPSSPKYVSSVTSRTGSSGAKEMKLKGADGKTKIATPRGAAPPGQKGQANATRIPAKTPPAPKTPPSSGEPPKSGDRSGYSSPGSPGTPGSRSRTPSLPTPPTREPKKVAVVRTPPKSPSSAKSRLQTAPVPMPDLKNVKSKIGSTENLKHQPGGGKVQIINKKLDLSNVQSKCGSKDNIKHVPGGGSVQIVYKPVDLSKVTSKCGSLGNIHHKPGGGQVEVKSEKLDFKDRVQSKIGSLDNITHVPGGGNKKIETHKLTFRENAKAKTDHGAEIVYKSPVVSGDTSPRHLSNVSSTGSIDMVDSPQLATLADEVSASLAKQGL
SMILES,Potency,"activity, negative = inhibition"
O=C(Cn1cnc2ccccc2c1=O)Nc1nnc(SCc2ccc(Cl)cc2)s1,"inconclusive: 35.5 µM [inhibitor, single point]",–
CO[C@H]1C[C@@H]2C[C@H](O)C[C@@H](CC(=O)O[C@@H](/C=C\CC(C)C)C[C@@H]3CC[C@H](C)[C@@H](C1)O3)O2,–,inactive: -7.82% [at 11.6 µM]
O=[N+]([O-])c1cc(Br)c(O)c(/C=N/Nc2nnnn2-c2cccc3ccccc23)c1,"inconclusive: 1.26 µM [activator, full curve, poor fit]",–
CCOc1ccc(NC(=O)c2oc3ccccc3c2NC(=O)C(C)(C)C)cc1,–,inactive: -14.8%
CC(Cc1cccs1)NC(=O)Nc1cccc(Cl)c1 (stereo not given),"inconclusive: 15.8 µM [inhibitor, partial curve, poor fit]",–
Clc1ccc(-c2cc3ncc4c(n3n2)-c2ccccc2OC4)cc1,"inconclusive: 39.8 µM [inhibitor, single point]",–
COc1ccc(CCNc2nc3c(-c4cccc(C(F)(F)F)c4)nnn3c3ccccc23)cc1OC,"inconclusive: 25.1 µM [inhibitor, partial curve]",–
Cc1ccc(CN2CCCn3nc(C(=O)NCc4ccc(N(C)C)cc4)cc3C2=O)cc1,–,inactive: 7.35%
Cc1ccc(-c2nnc3n2N=C(c2ccccc2Br)CS3)cc1,–,inactive: 3.04%
COC(=O)C1(C(=O)OC)C[C@@H]2CON=C2[C@H]1c1ccccc1,"inconclusive: 0.158 µM [inhibitor, full curve, poor fit]",–
COc1cc(NC(=O)c2ccco2)c(OC)cc1NC(=O)CCC(=O)Nc1cccc(C)c1C,"inconclusive: 17.8 µM [activator, single point]",–
CC(=O)Nc1ccc(N2C(=O)c3ccc(C(=O)Nc4nnc(SCc5ccc(F)cc5)s4)cc3C2=O)cc1,"inconclusive: 25.1 µM [inhibitor, single point]",–
CCOC(=O)c1cc2n(c1N)-c1ccccc1C2=O,"inconclusive: 31.6 µM [inhibitor, partial curve]",–
Cn1c(=O)c2c(nc(CN3CCc4ccccc4C3)n2Cc2cccc(Cl)c2)n(C)c1=O,"inconclusive: 0.126 µM [inhibitor, full curve, poor fit]",–
CCc1ccc(NC(=O)c2sc(-n3nc(C)c(CCC(C)C)c3C)nc2C)cc1,–,inactive: 15.1%
CC(=O)Nc1ccc(-c2csc(Nc3ccc(S(N)(=O)=O)cc3)n2)cc1,–,inactive: 9.11%
O=C(c1ccc2c(c1)C(=O)N(CCCO)C2=O)c1ccc2c(c1)C(=O)N(CCCO)C2=O,–,inactive: 5.28%
CCn1c(N)c(C(=O)NCc2cccnc2)sc1=S,–,inactive: -2.29%
N#Cc1ccccc1NC(=O)CSc1nc(-c2ccccc2)cc(C(F)(F)F)c1C#N,"inconclusive: 12.6 µM [inhibitor, partial curve]",–
CCOc1ccc(C2Nc3cccc4cccc(c34)N2)cc1OC,"inconclusive: 17.8 µM [inhibitor, single point]",–
CCc1cccc(CC)c1NC(=S)NCCc1c(C)[nH]c2ccccc12,"inconclusive: 14.1 µM [activator, partial curve]",–
O=C(NN1C(=O)c2ccccc2NC1c1ccc([N+](=O)[O-])o1)c1ccccc1 (stereo not given),"inconclusive: 7.08 µM [inhibitor, partial curve]",–

SMILES,Potency,"activity, negative = inhibition"
CNc1nc(-c2ccc3c(c2)CCN3C(=O)c2ccccc2F)c(C)s1,"inconclusive: 1.26 µM [activator, partial curve, poor fit]",–
O=C(/C=C/c1cccs1)Nc1cccc(NC(=O)/C=C/c2cccs2)n1,"inconclusive: 31.6 µM [inhibitor, partial curve]",–
O=C(NC1CCCC1)c1cccnc1N1CCCCCC1,–,inactive: 3.14%
CC(=O)Nc1ccc(S(=O)(=O)NCCSCc2ccc(Cl)cc2Cl)cc1,"inconclusive: 22.4 µM [inhibitor, partial curve]",–
COc1ccc(OC)c(NC(=O)C(C)n2c(=O)cc(C)c3c(C)nn(-c4ccccc4)c32)c1 (stereo not given),–,inactive: -12.6%
O=C(NC(=S)Nc1ccccc1Cl)c1csnn1,"inconclusive: 17.8 µM [inhibitor, partial curve, poor fit]",–
Cc1ccc(CNC(=O)c2c[nH]c3ccc(S(=O)(=O)N4CCOCC4)cc3c2=O)cc1,"inconclusive: 7.94 µM [inhibitor, full curve]",–
Brc1ccc(-c2nc(N/N=C/c3cccnc3)c3ccccc3n2)cc1,"inconclusive: 8.91 µM [inhibitor, full curve]",–
Cc1sc2ccccc2[n+]1CC(=O)O,active: 31.6 µM,–
COCCNC(=S)N(CCc1c(C)[nH]c2ccc(C)cc12)Cc1ccco1,–,inactive: 21.1%
CC1=C(C(=O)OCC(C)C)C2(O)C(=O)c3ccccc3C2(O)N1 (stereo not given),"inconclusive: 8.91 µM [inhibitor, partial curve]",–
COc1cc(/C=N/NC(=O)Cc2c[nH]c3ccccc23)cc(OC)c1OC,–,inactive: 8.81%
C=CCn1c(SCC(=O)Nc2ccccc2OC)nnc1-c1ccccn1,"inconclusive: 0.447 µM [inhibitor, partial curve, poor fit]",–
COc1cc(NC(=O)Nc2ccccc2OC)c(OC)cc1NC(=O)CN1CCCCC1,"inconclusive: 8.91 µM [activator, partial curve]",–
Cc1ccc(S(=O)(=O)c2nnn3c2nc(NC2CCCCCC2)c2sccc23)cc1C,"inconclusive: 7.08 µM [inhibitor, full curve]",–
CO/N=C(/C(=O)NC1C(=O)N2C(C(=O)O)=C(CSc3nc(=O)c(O)nn3C)CSC12)c1csc(N)n1 (stereo not given),"inconclusive: 28.2 µM [inhibitor, single point] and inconclusive: 25.1 µM [inhibitor, single point]",–
CC1CCN(C(=O)c2cc3c(=O)n(C)c4cc(Cl)ccc4c3s2)CC1,–,inactive: 0.148%
Cc1nc(-c2ccc(S(=O)(=O)N3CCN(c4cccc(C(F)(F)F)c4)CC3)cc2)co1,"inconclusive: 22.4 µM [inhibitor, single point]",–
O=C(NC1CCCCC1)N(Cc1ccccc1)Cc1ccco1,–,inactive: 8.46%
O=C(Nc1nccs1)c1ccc(S(=O)(=O)NCC2CCCCC2)cc1,"inconclusive: 11.2 µM [inhibitor, partial curve, poor fit]",–
CCOc1ccc(Br)cc1S(=O)(=O)NC(=O)c1ccccc1,–,inactive: -0.367%
COc1ccccc1NC(=O)Nc1ccc2[nH]c(=O)[nH]c2c1,"inconclusive: 39.8 µM [activator, single point]",–

SMILES,Potency,"activity, negative = inhibition"
O=C(Cn1c(=O)sc2ccccc21)Nc1ccc(S(=O)(=O)N2CCCC2)cc1,"inconclusive: 25.1 µM [inhibitor, single point]",–
O=C(CSc1nc2ccc(Cl)cc2[nH]1)c1c[nH]c2ccccc12,"inconclusive: 12.6 µM [inhibitor, partial curve]",–
CC1(C)OCC(CSC2=C(SCC3COC(C)(C)O3)C(=O)c3ncccc3C2=O)O1 (stereo not given),active: 1.78 µM,–
COc1ccc(C(=O)/C(=C\c2ccco2)N2C=CC=CC2=C(C#N)C#N)cc1,"inconclusive: 14.1 µM [inhibitor, partial curve]",–
Cn1c(N)c(C(=O)COC(=O)c2cc(C3CC3)nc3ccccc23)c(=O)n(Cc2ccccc2)c1=O,"inconclusive: 3.98 µM [inhibitor, full curve, poor fit] and inconclusive: 7.08 µM [inhibitor, partial curve]",–
Cn1cccc1/C=C1\SC(=O)N(CC(=O)Nc2ccc(F)cc2)C1=O,"inconclusive: 28.2 µM [inhibitor, single point]",–
COCCCNC(=O)CSc1nc2sc(C(=O)OC)c(C)c2c(=O)n1N,"inconclusive: 39.8 µM [inhibitor, single point]",–
Cc1ccc(C(=O)Nc2nc(=O)n(C(=O)CC(C)C)s2)cc1,"inconclusive: 11.2 µM [inhibitor, partial curve]",–
O=C(Nc1cccc2nsnc12)c1ccc2c(c1)OCCO2,"inconclusive: 0.891 µM [inhibitor, single point]",–
Cc1ccc(S(=O)(=O)N2CCC(c3nc4c(nnn4Cc4ccccc4)c(=O)[nH]3)CC2)cc1,"inconclusive: 8.91 µM [inhibitor, single point]",–
CC(C)(C)CC(C)(C)c1ccc(O)c(Cc2ccc(Cl)cc2Cl)c1,"inconclusive: 25.1 µM [inhibitor, partial curve]",–
Cc1ccc2[nH]c(O)c(N=Nc3nc4ccccc4s3)c2c1,–,inactive: 0.77%
O=C(/C=C/c1ccc(Cl)cc1Cl)Nc1ccc(CN2CCOCC2)cc1,"inconclusive: 31.6 µM [inhibitor, single point]",–
CCCN(CCC)c1nc(Cl)nc(NCc2ccco2)n1,"inconclusive: 28.2 µM [inhibitor, partial curve, poor fit]",–
CCN(CC)c1cc(C)c2cc(NC(=O)c3cc(OC)cc(OC)c3)ccc2n1,"inconclusive: 11.2 µM [activator, partial curve]",–
CCn1ccc2c(OCC(=O)Nc3ccc(C)c(Cl)c3)cccc2c1=O,–,inactive: -6.36%
O=C(Nc1cc(S(=O)(=O)N2CCOCC2)ccc1N1CCCCC1)c1cc(-c2ccccn2)nc2ccccc12,"inconclusive: 20 µM [inhibitor, partial curve]",–
COc1ccc(OC)c(Nc2nc(=O)c3cccnc3s2)c1,"inconclusive: 3.98 µM [inhibitor, single point]",–
CCOC(=O)c1ccccc1NC(=O)NCc1c(-n2cccc2)sc2c1CCCC2,–,inactive: 4.31%
CCCCC/C=C\C/C=C\C/C=C\CCCCC(N)=O,–,inactive: 5.53%
CCN(CC)c1ccc(C=N/C(C#N)=C(\N)C#N)cc1,"inconclusive: 10 µM [activator, partial curve]",–
